The source gives no read counts; variants with many changes may rest on few reads.

B1: LINE1-mini (parent)
chain: GGCAGAGCUCAACACAGCGUGGCAAAGUGGCUGUGGCUAGACUGCC

In the data set the parent is B1. Briefly: self-cleavage, relative activity (ratio to wild type); higher = more cleavage; in vitro, sequencing; the parent is a self-cleaving ribozyme.
As for GGCAGAGCACAACACAGGGUGACAAAGUGGCUUUGGCUCGACUACC [U9A C18G G22A G33U A39C G44A], the self-cleavage turned out to be 0.02.
Regarding GGCAGAGCAAAACACAGCGUGGCAGAGUGGGUAUGUCUUGACUUCC [U9A C10A A25G C31G G33A G36U A39U G44U], the self-cleavage stood at 0.02.
As for GGCAGAGCACAACACUGCGUGGCAAAGUGGAUGUGGCUAGACUGCC [U9A A16U C31A], the figure is 0.03.
As for GGCAGAGCACAACAUAGCUUGGCAAAGUGGCUGUGGCUAGACUGCC [U9A C15U G19U], the figure is 0.35.
With GGCAGAGCACAACACAGAGUGGCAAAGCGUCUGUGGCUAGACUGCC [U9A C18A U28C G30U] the figure was 0.07.
Regarding GGCAGAGCACAAAACAGCGUGGCAAAGUGGCUGUGUCUAGACUGCC [U9A C13A G36U], the self-cleavage is 0.16.
With GGCAGAGCACAACGCAGCGUGGCAAAGUGGCUGUGGCGAGACUGCC [U9A A14G U38G] the figure was 0.12.
As for GGCAGAGCACAAGAGAGCGUGGCAAAGUGGCUGUGGCUAGACUGCC [U9A C13G C15G], the figure is 0.02; as for GGCAGAGCAUAACACAGCGUGGUAAAGUGGCUGUGGCUAGAGUGCC [U9A C10U C23U C42G], 0.01.
As for GGCAGAGCACAACACUGCGUGGGAAAGUGGCUGUGGCUAGACGGCA [U9A A16U C23G U43G C46A], the figure is 0.01; as for GGCAGAGCACAACUCAGCGUGGCAAAGUGGCUGUGCCUAGACUGCC [U9A A14U G36C], 0.02; as for GGCAGAGCACAACACAGCGUGGCUAAGUGGCUCUGACUAGACUGCC [U9A A24U G33C G36A], 0.01.
Take GGCAGAGCACAACACUGCGUGGCAUACUGUCUCUGGCUAGACUGCC [U9A A16U A25U G27C G30U G33C]: the self-cleavage amounted to 0.02.
With GGCAGAGCAAAACAAAGCGUGGCAAAGUGGCUGUGGCUCGACUGCC [U9A C10A C15A A39C] the figure was 0.03; with GGCAGAGCACAAAACACCGUGGCAAAGUGGCUGUGCCUAGACUGCC [U9A C13A G17C G36C], 0.03.
As for GGCAGAGCACAACAUAGCGUGGCAAAGUGGCUGUGGCUGGACUGCC [U9A C15U A39G], the figure is 0.
As for GGCAGAGCACAACACAGAGUGGCAAAGUGUCUGUGGCUAGACUGCC [U9A C18A G30U], the figure is 0.1; as for GGCAGAGCACAACAUAGCGUGGCAAAGUGGCUGUGGCUAGCCUGCC [U9A C15U A41C], 0.03.
On to GGCAGAGCACAACACAGCGUGGCAUAGUGGCUGUGGCUGCACUGCC [U9A A25U A39G G40C], for which the self-cleavage is 0.03.
With GGCAGAGCACAACACUGCGUGGCUAAGUGGCUGUGGCUAGACUGGC [U9A A16U A24U C45G] the figure was 0.02; with GGCAGAGCACAACAAAGCGUGGCAAAUUGGCUGUGGCGAGACUGCC [U9A C15A G27U U38G], 0.02; with GGCAGAGCACAACACAGAGUGGCAAAGUGGCUGUGGUUAGACUGCC [U9A C18A C37U], 0.1.
As for GGCAGAGCACAACACGGCGUGGCAAUGUGGCUGUGGCUAGACUGCC [U9A A16G A26U], the figure is 0.16.
As for GGCAGAGCACAAUACAGCGUGGCAAAGUGGGUGGGCACAGAUUGCC [U9A C13U C31G U34G G36C C37A U38C C42U], the figure is 0.1; as for GGCAGAGCAAAACACAGCGUGGCAAUGUGGCUGUGGCUAGACUGCC [U9A C10A A26U], 0.01; as for GGCAGAGCAGAACACAGCGUGGCAAAGUGGCUGUGGGUAGACUGCC [U9A C10G C37G], 0.02.
Regarding GGCAGAGCAGAACAGAGCGUGGGAAAGUGGCUGAAGCUAGAGUGCC [U9A C10G C15G C23G U34A G35A C42G], the self-cleavage was found to be 0.01.
Turning to GGCAGAGCACAACACGGCGUGGCUAAUUGGCUGUGGCUAGACUGCC [U9A A16G A24U G27U], the self-cleavage amounted to 0.03.
With GGCAGAGCAUAACACCGGGUGGCAAAGUGGUUGUGGCUAGAUUGCC [U9A C10U A16C C18G C31U C42U] the figure was 0.01; with GGCAGAGCAGAGCACAGCGUGGCAAAGUGGCUGUGGCUAGACUGCC [U9A C10G A12G], 0.01.
Take GGCAGAGCAAAACACAGAGUGGUAAAUUGGCUGUGGCUAGACUGCC [U9A C10A C18A C23U G27U]: the self-cleavage is 0.02.
As for GGCAGAGCAUAACAUAGCGUGGCAAAGUGGCUGUGGCUAGACUGCC [U9A C10U C15U], the figure is 0.07.
As for GGCAGAGCACAACACCGCGUUGCAAAGCGGCUGUGGCUAGACCGCC [U9A A16C G21U U28C U43C], the figure is 0.01.
As for GGCAGAGCAUAACACAGCGUGGCAAAGUGGCUGUGGCUAGACUGCU [U9A C10U C46U], the figure is 0.03; as for GGCAGAGCACAACACAGCGUGGCAAAGUGGCUGUGGCUUGACUGCA [U9A A39U C46A], 0.18.
Take GGCAGAGCACAACACAGCGUGGCCAAGUGGCUGUGGCUUGACUGCC [U9A A24C A39U]: the self-cleavage was 0.33.
As for GGCAGAGCACAACACAGCGUGGCGAAGUGGCUGUGGCAAGCUUGCC [U9A A24G U38A A41C C42U], the figure is 0.04; as for GGCAGAGCAGAACACAGCUUGGCAAAGUGUCUGUGGCUAGACUCCC [U9A C10G G19U G30U G44C], 0.01; as for GGCAGAGCACAACACUGCGCGGCAAAGUGGCUGUGGUUAGACUGAC [U9A A16U U20C C37U C45A], 0.08.
As for GGCAGAGCACAACACAGGGUGUCAAAGUGGCCGUGGCUAGACUACC [U9A C18G G22U U32C G44A], the figure is 0.04; as for GGCAGAGCAGAACACAGGGUGGCAAAGUGGAUGUGGCUAGACUGCC [U9A C10G C18G C31A], 0.02; as for GGCAGAGCACAAAACAGUGUGGCAAAGUGGCUGUCGCUAGACUGAC [U9A C13A C18U G35C C45A], 0.11.
As for GGCAGAGCAGAACGCAGCGUGGCAAAGUGGCUGUGGCUAGACUGCC [U9A C10G A14G], the figure is 0.03; as for GGCAGAGCACAACAGAGCGCGGCAAAGUGGCUGUCGCUAGACUGCC [U9A C15G U20C G35C], 0.04.
Take GGCAGAGCACAACACAGGGUGGCAGAGUGGCUGUGGCUAGACUGCC [U9A C18G A25G]: the self-cleavage was 0.18.
Turning to GGCAGAGCAAAACACAGCGGGGCAAAGUGGCUGUGUCUAGACUGCC [U9A C10A U20G G36U], the self-cleavage came out at 0.03.
Take GGCAGAGCACAACACAGCGUGGCACAGUGGCUGUGGCUAGACUCCC [U9A A25C G44C]: the self-cleavage is 0.03.
As for GGCAGAGCACAACACAGCGUGGCCAAUUGGCUGUGCCUAGACUGCC [U9A A24C G27U G36C], the figure is 0.03.
With GGCAGAGCACAACACAGAGUGGCAAUGUGGCUGUGGCUAGACUGCC [U9A C18A A26U] the figure was 0.01; with GGCAGAGCACAACAAAGCGUGGCAAAGUGGCUGUAGCUAGACUUCC [U9A C15A G35A G44U], 0.21; with GGCAGAGCAUAACACAGAGUGGCAAAGUGGAUGUGGCUAGACUGCC [U9A C10U C18A C31A], 0.08.
With GGCAGAGCACAACACCGCGUGGCAAAGUGGGUGUGGCCAGACUGCC [U9A A16C C31G U38C] the figure was 0.05.
As for GGCAGAGCAUAACACAGCCUGGCAAAGGGGCUGCGGCUAGACUGCC [U9A C10U G19C U28G U34C], the self-cleavage stood at 0.01.
With GGCAGAGCACAACAUAGCGUGGCAAAGUGUCUGUGGCUAGUCUGCC [U9A C15U G30U A41U] the figure was 0.05.
With GGCAGAGCACAACUCAACGUGGCAAGGUGGCUGUGGCUAGACUUCC [U9A A14U G17A A26G G44U] the figure was 0.08; with GGCAGAGCACAACACAGCGUGGCAUAGUGGCUGGGGCUAGACUGCC [U9A A25U U34G], 0.03.

The record behind these values is the RNAGym collection of RNA variant scans (doi:10.7554/elife.90254).
